Measurements taken from the supplement of paper PMC3334620.
In all, about 33,000 sequences were measured (“E-score (-0.5 to 0.5)”: median about -0.032, highest 2% from about 0.36 on). The list shows a part of the results.

Target: T1, Sko1 (UniProt Q02100)
T1 sequence: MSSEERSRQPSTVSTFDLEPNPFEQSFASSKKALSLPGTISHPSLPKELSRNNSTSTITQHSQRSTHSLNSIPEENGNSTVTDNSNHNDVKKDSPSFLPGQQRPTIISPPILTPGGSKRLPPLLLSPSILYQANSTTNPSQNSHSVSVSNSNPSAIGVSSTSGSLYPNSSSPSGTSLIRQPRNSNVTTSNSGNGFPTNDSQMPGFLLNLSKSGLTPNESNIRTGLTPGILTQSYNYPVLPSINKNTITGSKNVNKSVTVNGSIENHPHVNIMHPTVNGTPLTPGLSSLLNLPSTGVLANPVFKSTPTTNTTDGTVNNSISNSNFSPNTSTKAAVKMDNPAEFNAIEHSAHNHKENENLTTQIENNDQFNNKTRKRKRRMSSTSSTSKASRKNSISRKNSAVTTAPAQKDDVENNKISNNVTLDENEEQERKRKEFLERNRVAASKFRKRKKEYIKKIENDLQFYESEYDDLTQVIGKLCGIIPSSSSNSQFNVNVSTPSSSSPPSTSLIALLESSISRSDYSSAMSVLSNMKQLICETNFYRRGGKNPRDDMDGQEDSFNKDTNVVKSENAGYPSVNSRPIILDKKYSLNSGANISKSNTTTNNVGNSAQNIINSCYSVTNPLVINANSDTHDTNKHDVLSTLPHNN
Test: PBM E-score (8-mer binding enrichment) (E-score (-0.5 to 0.5)); higher = stronger / more preferred TF binding; most listed sequences are background and not binding sites
Settings: protein concentration: 200 nM; construct: GST-full length
Outline: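 For each ungapped eight-base word taken together with its reverse complement, the Universal PBM Analysis Suite assigned an E-score. Binding data came from GST-tagged yeast transcription factors, applied at about 100-200 nM, on universal all-10-mer Agilent arrays made double-stranded by primer extension. Fluorescent anti-GST marked bound protein, and scans were normalised with masliner.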

Row | Sequence | PBM E-score
1 | TATGCCGA | -0.0317
2 | AGAACCTG | -0.192
3 | ATGTCGTA | 0.424
4 | GATTAAAC | 0.171
5 | CGTGTCCA | 0.0882
6 | TAACGATA | 0.319
7 | AGGGACTC | -0.28
8 | ACCAAGTG | -0.237
9 | AGGGCGGA | -0.265
10 | ACAGTTGC | 0.121
11 | ATTTACCA | 0.109
12 | CCGCTTCC | -0.273
13 | CCACTTAA | 0.0677
14 | AGGTGCTC | -0.262
15 | AAGAGATC | -0.137
16 | CATCTACG | 0.2
17 | AGCCCCAC | -0.137
18 | AAACTCGC | -0.187
19 | ACAGTGGC | -0.0839
20 | GGGCTGGA | -0.212
21 | CGTTCAAG | 0.0946
22 | GCAGAGGA | -0.185

Row | Sequence | PBM E-score
23 | TCCCATAA | -0.145
24 | AACACAGT | -0.0914
25 | CAGTAACG | 0.195
26 | TACCTCGA | 0.0363
27 | GATACCGA | -0.0867
28 | GAGAGTAC | 0.111
29 | GGATACCA | -0.014
30 | AAGGTCGT | -0.0153
31 | AGGGAGTC | -0.0522
32 | AAAGCCTC | -0.206
33 | AGTGGAGC | -0.325
34 | ATAAATCA | 0.199
35 | CGGAGCTA | -0.138
36 | AGGTGGCA | -0.152
37 | CCGGTGAA | -0.14
38 | TATGCCAA | 0.127
39 | AACTTGAC | 0.181
40 | CTACGGAA | 0.157
41 | GCATTAGA | 0.116
42 | CCCTGCAC | -0.197
43 | GCGCCGAC | -0.128
44 | GCCTGTTA | -0.133

Row | Sequence | PBM E-score
45 | GGCAACCA | -0.17
46 | AGATGAAG | -0.115
47 | ACTCATGG | -0.0551
48 | ATTTCTTC | 0.051
49 | AGGGGCTG | -0.223
50 | CCATTGCA | 0.0605
51 | CTCGAACA | 0.163
52 | CAATTGAC | 0.105
53 | AGTTCTAC | 0.125
54 | ACCGACCG | -0.193
55 | CCGTAGCC | -0.259
56 | ACTTACTG | 0.0462
57 | CCACCGCC | -0.24
58 | ATTTGGCA | -0.0462
59 | GAGACTCA | -0.119
60 | CTGCTTAA | -0.00146
61 | CTGCCCAG | -0.229
62 | CCAGTTAG | 0.0486
63 | CTGAAGTA | 0.0582
64 | ACAACGTG | 0.218
65 | CAGCTAAG | -0.281
66 | CGGCAACG | -0.0449

Row | Sequence | PBM E-score
67 | GGCTAGAC | -0.131
68 | CTATCCTA | -0.162
69 | CGGTAATC | -0.108
70 | GCAAATCC | -0.0641
71 | AGCATCCA | -0.238
72 | ATGGTTAG | -0.0395
73 | CTCCACAC | -0.197
74 | AACCGGAG | -0.197
75 | CTGCAAAG | -0.18
76 | GGGGAGCA | -0.133
77 | GCCGCCAC | -0.294
78 | TAAGCGGA | -0.0919
79 | CGTTAGCC | 0.0984
80 | CAGAACTA | -0.0397
81 | CCCAACCC | -0.139
82 | ACGCCACT | 0.209
83 | ATCCAATA | 0.151
84 | AGCTACCG | -0.255
85 | AGTGTACG | 0.237
86 | CCGTTCTC | -0.104
